Measured values published in publication PMC3065485.
Results are given in words; binding and its absence hold for the method and conditions named. In cells and extracts the contact can be indirect. Some results given as binding are weak or reduced against the parent protein; the word gives no strength. Tags and fused reporters may be left off the sequences shown.

What was measured:
Experiment in all cases: co-IP; α-Myc immunoprecipitation of the Myc-tagged Ccr4-Not subunit from 1 mg yeast whole-cell extract (10 mM Tris pH 8.0, 150 mM NaCl, 0.1% Nonidet P-40, 10% glycerol, 1 mM DTT), 4°C, Protein A agarose; α-HA immunoblot for Hmt1
[1] = molecular target: T1, Caf1-Myc (S. cerevisiae) (UniProt P39008)
T1 sequence: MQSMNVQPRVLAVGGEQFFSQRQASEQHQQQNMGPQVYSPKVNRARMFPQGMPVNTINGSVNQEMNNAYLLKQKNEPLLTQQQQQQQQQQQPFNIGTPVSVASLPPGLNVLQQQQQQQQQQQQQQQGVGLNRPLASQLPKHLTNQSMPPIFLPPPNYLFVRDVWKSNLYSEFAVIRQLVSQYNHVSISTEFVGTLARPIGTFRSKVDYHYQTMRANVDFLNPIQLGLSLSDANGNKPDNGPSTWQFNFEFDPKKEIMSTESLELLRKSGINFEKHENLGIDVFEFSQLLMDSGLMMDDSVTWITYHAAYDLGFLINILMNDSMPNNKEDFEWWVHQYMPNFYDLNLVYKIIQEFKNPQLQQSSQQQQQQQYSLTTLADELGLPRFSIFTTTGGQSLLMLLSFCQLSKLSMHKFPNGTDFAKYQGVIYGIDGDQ

[2] = molecular target: T2, Ccr4-Myc (S. cerevisiae) (UniProt P31384)
T2 sequence: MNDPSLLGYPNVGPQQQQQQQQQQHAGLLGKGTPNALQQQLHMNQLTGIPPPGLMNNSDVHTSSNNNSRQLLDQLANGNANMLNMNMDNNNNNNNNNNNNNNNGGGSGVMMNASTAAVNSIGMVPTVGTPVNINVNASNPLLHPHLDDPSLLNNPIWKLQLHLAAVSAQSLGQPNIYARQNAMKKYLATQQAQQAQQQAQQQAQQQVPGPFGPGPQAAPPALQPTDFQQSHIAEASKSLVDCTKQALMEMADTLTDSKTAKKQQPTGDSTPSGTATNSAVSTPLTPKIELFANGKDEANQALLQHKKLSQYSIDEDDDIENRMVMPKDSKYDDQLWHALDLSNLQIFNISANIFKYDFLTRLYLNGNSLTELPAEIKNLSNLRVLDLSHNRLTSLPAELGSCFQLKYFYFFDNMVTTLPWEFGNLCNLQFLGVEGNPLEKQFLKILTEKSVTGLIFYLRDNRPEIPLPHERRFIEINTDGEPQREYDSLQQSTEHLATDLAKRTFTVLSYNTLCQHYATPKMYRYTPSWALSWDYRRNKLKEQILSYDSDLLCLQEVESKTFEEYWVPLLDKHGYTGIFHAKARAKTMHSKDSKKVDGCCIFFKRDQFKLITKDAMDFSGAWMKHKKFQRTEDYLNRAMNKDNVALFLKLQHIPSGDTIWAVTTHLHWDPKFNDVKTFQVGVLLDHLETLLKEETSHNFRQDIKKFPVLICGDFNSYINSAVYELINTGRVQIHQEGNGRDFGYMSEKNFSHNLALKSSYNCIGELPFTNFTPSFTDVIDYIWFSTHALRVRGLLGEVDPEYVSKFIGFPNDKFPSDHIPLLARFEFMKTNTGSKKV

[3] = molecular target: T3, Not2-Myc (S. cerevisiae) (UniProt P06100)
T3 sequence: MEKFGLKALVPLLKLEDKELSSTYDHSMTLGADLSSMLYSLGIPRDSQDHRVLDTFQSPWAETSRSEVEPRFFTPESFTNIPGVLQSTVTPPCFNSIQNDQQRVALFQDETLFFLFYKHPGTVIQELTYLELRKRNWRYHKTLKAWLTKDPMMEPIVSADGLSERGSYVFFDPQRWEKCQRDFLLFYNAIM

[4] = molecular target: T4, Not5-Myc (S. cerevisiae) (UniProt Q12514)
T4 sequence: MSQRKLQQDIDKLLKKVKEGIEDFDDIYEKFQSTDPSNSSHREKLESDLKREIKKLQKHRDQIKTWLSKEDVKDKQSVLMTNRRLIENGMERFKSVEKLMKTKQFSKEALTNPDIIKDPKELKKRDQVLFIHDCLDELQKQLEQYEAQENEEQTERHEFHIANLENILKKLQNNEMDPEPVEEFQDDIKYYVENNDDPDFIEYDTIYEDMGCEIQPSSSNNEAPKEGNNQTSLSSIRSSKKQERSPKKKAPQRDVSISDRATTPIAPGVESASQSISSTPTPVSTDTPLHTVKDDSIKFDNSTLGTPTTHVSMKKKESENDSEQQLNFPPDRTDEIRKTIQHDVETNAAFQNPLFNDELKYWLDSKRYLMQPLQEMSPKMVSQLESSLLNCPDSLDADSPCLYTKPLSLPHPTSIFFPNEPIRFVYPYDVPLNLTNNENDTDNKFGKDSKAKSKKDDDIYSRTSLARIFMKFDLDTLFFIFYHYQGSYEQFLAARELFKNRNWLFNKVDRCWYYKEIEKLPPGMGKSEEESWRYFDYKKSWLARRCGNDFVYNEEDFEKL

binding [1]: binds
binding [2]: binds
binding [3]: binds weakly
binding [4]: no binding
B1: Hmt1-HA (enzyme, UniProt P38074 1-348)
chain: MSKTAVKDSATEKTKLSESEQHYFNSYDHYGIHEEMLQDTVRTLSYRNAIIQNKDLFKDKIVLDVGCGTGILSMFAAKHGAKHVIGVDMSSIIEMAKELVELNGFSDKITLLRGKLEDVHLPFPKVDIIISEWMGYFLLYESMMDTVLYARDHYLVEGGLIFPDKCSIHLAGLEDSQYKDEKLNYWQDVYGFDYSPFVPLVLHEPIVDTVERNNVNTTSDKLIEFDLNTVKISDLAFKSNFKLTAKRQDMINGIVTWFDIVFPAPKGKRPVEFSTGPHAPYTHWKQTIFYFPDDLDAETGDTIEGELVCSPNEKNNRDLNIKISYKFESNGIDGNSRSRKNEGSYLMH
